To fix the notation:
B1: LINE1-full (parent)
chain: UACGUAGGUGGUUUUCCCCUGAUAGUGCUAAGGGGGCCUGGAAGUUUGGACUGGGCAGAGCUCAACACAGCGUGGCAAAGUGGCUGUGGCUAGACUGCCUCUCUGGAUUCCUCGUCACUCAGCAGGGCAUCUCUGAGAGAAAUGCC

Read counts are not given, so values of variants with three or more changes are uncertain.

The variants in the data set derive from B1. Description: self-cleavage, relative activity (ratio to wild type); higher = more cleavage; in vitro, sequencing; the parent is a self-cleaving ribozyme.
Regarding UACGUAGGUGGUUUUCCCCUGAUAGUGCUAAGGGGGCCUGGAAGUUUGGACUGGGCAGAGCUCAACACAGCGUGGCAAAGUGGCCGUGGCUAGACUGCCUCUCUGGAUUCCUCGUCACUCAGCAGGGCACCUCCGAGAGAAAUGCC [U85C U130C U134C], the self-cleavage was 0.14.

Turning to UACGUAGGUGGUUUUCCCCUGAUAGUGCUAAGGGGGCCUGGAAGUUUGGACUGGGCAGAGCUCAACACAGCGUGGCAAAGUGGCUGAGGCUAGACUGCCUCUCUGGAUUCCUCGUCACUCAGCAGGGCAUCUCAGAGAGGAAUGCC [U87A U134A A140G], the self-cleavage amounted to 0.09. For the variant UACGUAGGUGGUUUUCCCCUGAUAGUGCUAAGGGGGCCUGGAAGUUUGGACUGGGCAGAGCUCAACACAGCGUGGCAAAGUGGCGGUGGCUAGACUGCCUCUCUGGAUUCCUCGUCACUCUGCAGGGCAUCCCUGAGAGAAAUGCC [U85G A121U U132C], the self-cleavage was found to be 0.

Consider UACGUAGGUGGUUUUCCCCUGAUAGUGCUAAGGGGGCCUGGAAGUUUGGACUGGGCAGAGCUCAACACAGCGUGGCAAAGUGGCUGAGGCUAGACUGCCUCUCUGGAUUCCUCGUCACUCAGCGGGGCAUCUCUGAGAGGAAUGCC [U87A A124G A140G], for which the self-cleavage was 0.

In the case of UACGUAGGUGGUUUUCCCCUGAUAGUGCUAAGGGGGCCUGGAAGUUUGGACUGGGCAGAGCUCAACACAGCGUGGCAAAGUGGCUAUGGCUAGACUGCCUCUCUGGAUUCCUCGCCACUCAGCAGGGCAUCUCUGAGGGAAAUGCC [G86A U115C A138G], the self-cleavage is 0.07. Under UACGUAGGUGGUUUUCCCCUGAUAGUGCUAAGGGGGCCUGGAAGUUUGGACUGGGCAGAGCUCAACACAGCGUGGCAAAGUGGCUGCGGCUAGACUGCCUCUCUGGAUUCCUCAUCACUCAGCAGGGCAUCUCUGAGAGAAAAGCC [U87C G114A U143A] stands 0.18; under UACGUAGGUGGUUUUCCCCUGAUAGUGCUAAGGGGGCCUGGAAGUUUGGACUGGGCAGAGCUCAACACAGCGUGGCAAAGUGGCUGAGGCUAGACUGCCUCUCAGGAUUCCUCGUCACUCAGCAGGGCAUCUCUGUGAGAAGAGCC [U87A U104A A136U A142G U143A], 0.11. As to UACGUAGGUGGUUUUCCCCUGAUAGUGCUAAGGGGGCCUGGAAGUUUGGACUGGGCAGAGCUCAACACAGCGUGGCAAAGUGGCGGUGGCUAGACUGCCUCUCUGGAGUCCUCGUCACUCACCAGAGCAUCCCUGAGAGAAAUGCC [U85G U108G G122C G126A U132C], the self-cleavage was 0.14. Under UACGUAGGUGGUUUUCCCCUGAUAGUGCUAAGGGGGCCUGGAAGUUUGGACUGGGCAGAGCUCAACACAGCGUGGCAAAGUGGCUGAGGCUAGACUGCCUCACUGGAUACCUCGUCACUCAGCAGGGCAUCUCUGAGAGAAAUGCC [U87A U102A U109A] stands 0.07; under UACGUAGGUGGUUUUCCCCUGAUAGUGCUAAGGGGGCCUGGAAGUUUGGACUGGGCAGAGCUCAACACAGCGUGGCAAAGUGGCUGAGGCUAGACUGCCUCUCUGGAUUCCUCGUCGCACAGCAGGGCAUCUCUGAGGGAACUGCC [U87A A117G U119A A138G A142C], 0; under UACGUAGGUGGUUUUCCCCUGAUAGUGCUAAGGGGGCCUGGAAGUUUGGACUGGGCAGAGCUCAACACAGCGUGGCAAAGUGGCUGAGGCUAGACUGCCUCUCUGGAUUCCUCGUCACUCAGCAGGGCAUCACUGAGAGAGAUGCC [U87A U132A A141G], 0.09. Under UACGUAGGUGGUUUUCCCCUGAUAGUGCUAAGGGGGCCUGGAAGUUUGGACUGGGCAGAGCUCAACACAGCGUGGCAAAGUGGCUGCGGCUAGACUGCCUCUCUGCAUUCCUCGUCACUCAGCUGGGCAUCUCUGAGAGAAAUGCC [U87C G106C A124U] stands 0.22. Under UACGUAGGUGGUUUUCCCCUGAUAGUGCUAAGGGGGCCUGGAAGUUUGGACUGGGCAGAGCUCAACACAGCGUGGCAAAGUGGCUGAGGCCAGACUGCCUCUCUGGAUUCCUCGUCUCUCAGCAGGGCAUCUCUGAGAGAAAUGCC [U87A U91C A117U] stands 0; under UACGUAGGUGGUUUUCCCCUGAUAGUGCUAAGGGGGCCUGGAAGUUUGGACUGGGCAGAGCUCAACACAGCGUGGCAAAGUGGCUGCGGCUAGACCGCCUCUCUGGAUUCCUCGUCACUCAGCAGGGCAUCUCUGAGGGAAAUGCC [U87C U96C A138G], 0.14; under UACGUAGGUGGUUUUCCCCUGAUAGUGCUAAGGGGGCCUGGAAGUUUGGACUGGGCAGAGCUCAACACAGCGUGGCAAAGUGGCUGAGGCUAGACUGCCUCUCCGGAUUCCUCGUCACUCAGCAGGGCAUCUCUGAGAGUAAUGCC [U87A U104C A140U], 0.44. Take UACGUAGGUGGUUUUCCCCUGAUAGUGCUAAGGGGGCCUGGAAGUUUGGACUGGGCAGAGCUCAACACAGCGUGGCAAAGUGGCCGUGGCUAGACUGCCUCUCUGGAUACCUCGUCACUCAGCAGGGCAUCUCUGGGAGAAAUGCC [U85C U109A A136G]: the self-cleavage amounted to 0. As to UACGUAGGUGGUUUUCCCCUGAUAGUGCUAAGGGGGCCUGGAAGUUUGGACUGGGCAGAGCUCAACACAGCGUGGCAAAGUGGCUGCGGCCAGACUGCCUCUCUGGAUUCCUCGUCUCUCAGCAGGGCGUCUCUGAGAGAAAUGCC [U87C U91C A117U A129G], the self-cleavage was determined as 0.

With UACGUAGGUGGUUUUCCCCUGAUAGUGCUAAGGGGGCCUGGAAGUUUGGACUGGGCAGAGCUCAACACAGCGUGGCAAAGUGGCUGCGGCUAGACUUCCUCUCUGGGUUCCUCGUCACUCAGCAGGGCAUCUCUGAGAGAAAUGCC [U87C G97U A107G], the self-cleavage was found to be 0.02. Under UACGUAGGUGGUUUUCCCCUGAUAGUGCUAAGGGGGCCUGGAAGUUUGGACUGGGCAGAGCUCAACACAGCGUGGCAAAGUGGCUAUGGCUUGACUGCCUCUCUGGUUUCCUCGUCACUCAGCAGGGCAUCUCUGAGAGAAAUGCC [G86A A92U A107U] stands 0.05.

Values taken from the RNAGym collection of RNA variant scans (doi:10.7554/elife.90254).
